A collection of fitness landscapes (doi:10.1016/j.celrep.2020.107928)
In all, about 81,000 sequences were measured (“one-hybrid fitness for binding parS DNA”: median about -0.17, highest 2% from about 0.51 on). This is one part of the list.

B1: Caulobacter ParB omega fusion; a variant is named by its letters at X, in order, B8GW30 (parent)
chain: MESVVVGEPGMSEGRRGLGRGLSALLGEVDAAPAQAPGEQLGGSREAPIEILQRNPDQPRRTFREEDLEDLSNSIREKGVLQPILVRPSPDTAGEYQIVAGERAWRAAQRAGLKTVPIMVRELDDLAVLEIGIIENVQRADLNVLEEALSYKVLMEKFERTQENIAQTIGKSXSHVANXMRLLXLPDEVQSYLVSGELTAXHARAIAAAADPVALAKQIIEGGLSVRETEALARKAPNLSAGKSKGGRPPRVKDTDTQALESDLSSVLGLDVSIDHRGSTGTLTITYATLEQLDDLCNRLTRGI

Variants of: B1
Test: one-hybrid fitness for binding parS DNA (scaled: cognate 1, non-cognate 0); higher = stronger binding
Conditions: with parS DNA site
Outline: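 On M9-minus-histidine containing 0.1 mM IPTG and 5 mM 3-AT, E. coli USO cells with a HIS3 reporter, site 19 bp from the promoter, grew 48 hours at 37°C to select Caulobacter ParB libraries randomised at four specificity codons. Plasmids from before and after were Illumina-sequenced, with three replicate libraries pooled and variants under 10 reads left out. Fitness is the log change in variant-to-wild-type read ratio, rescaled against cognate and non-cognate.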

Variant | one-hybrid fitness for binding parS DNA
NPDA | ≤ 0.2
SCAN | ≤ 0.2
NYRY | ≤ 0.2
CYQR | ≤ 0.2
LTFS | ≤ 0.2
RWFS | 0.691
SPLD | ≤ 0.2
HLLN | ≤ 0.2
VFNC | ≤ 0.2
WTER | ≤ 0.2
QFTL | ≤ 0.2
PFGT | ≤ 0.2
LCLW | ≤ 0.2
RGDY | ≤ 0.2
ACLN | ≤ 0.2
WLEL | ≤ 0.2
RVIT | 0.703
RVFY | 0.464
FMTG | ≤ 0.2
GWKC | ≤ 0.2
ALTR | ≤ 0.2
DDCG | ≤ 0.2
VAMS | ≤ 0.2
WNSS | ≤ 0.2
SIGC | ≤ 0.2

Variant | one-hybrid fitness for binding parS DNA
LVNL | ≤ 0.2
AAPD | ≤ 0.2
LCRP | ≤ 0.2
ETTD | ≤ 0.2
TRDK | ≤ 0.2
INDL | ≤ 0.2
TRVT | ≤ 0.2
PRHE | ≤ 0.2
SWRD | ≤ 0.2
NDPS | ≤ 0.2
ADLS | ≤ 0.2
LKTE | ≤ 0.2
PYIH | ≤ 0.2
MLRC | ≤ 0.2
FTKM | ≤ 0.2
HDLI | ≤ 0.2
TIWT | ≤ 0.2
WNHF | ≤ 0.2
HRSQ | ≤ 0.2
QAFL | ≤ 0.2
VSRD | ≤ 0.2
QKCA | ≤ 0.2
APEG | ≤ 0.2
RMPP | ≤ 0.2
LDKS | ≤ 0.2

Variant | one-hybrid fitness for binding parS DNA
IDVL | ≤ 0.2
EDTE | ≤ 0.2
YPPG | ≤ 0.2
YHHG | ≤ 0.2
LPML | ≤ 0.2
EHVR | ≤ 0.2
CTVT | ≤ 0.2
TPDC | ≤ 0.2
QGTL | ≤ 0.2
NMVT | ≤ 0.2
KNKV | ≤ 0.2
QNPQ | ≤ 0.2
CTTC | ≤ 0.2
NCIS | ≤ 0.2
FQHT | ≤ 0.2
TEVM | ≤ 0.2
VPNS | ≤ 0.2
WKKA | ≤ 0.2
HHMF | ≤ 0.2
WRSC | ≤ 0.2
CKHG | ≤ 0.2
NAGG | ≤ 0.2
ITLV | ≤ 0.2
QHQM | ≤ 0.2
WFDG | ≤ 0.2

Variant | one-hybrid fitness for binding parS DNA
AVRS | ≤ 0.2
AYQC | ≤ 0.2
HRSW | ≤ 0.2
RRDD | ≤ 0.2
VTVC | ≤ 0.2
KPHC | ≤ 0.2
KHSS | ≤ 0.2
WMIS | ≤ 0.2
RVLI | ≤ 0.2
SGMG | ≤ 0.2
SAHS | ≤ 0.2
GRTA | ≤ 0.2
TDSL | ≤ 0.2
AQSF | ≤ 0.2
LYCN | ≤ 0.2
VRTV | ≤ 0.2
MPMS | ≤ 0.2
EKLC | ≤ 0.2
MSPS | ≤ 0.2
YTLR | ≤ 0.2
DLDG | ≤ 0.2
NGAM | ≤ 0.2
LRPV | ≤ 0.2
DLKG | ≤ 0.2
PWHR | ≤ 0.2

Variant | one-hybrid fitness for binding parS DNA
QADR | ≤ 0.2
VSFT | ≤ 0.2
GELC | ≤ 0.2
QQNY | ≤ 0.2
SILF | ≤ 0.2
CMQA | ≤ 0.2
PLCG | ≤ 0.2
EESF | ≤ 0.2
RFGC | 0.882
KFTN | ≤ 0.2
TQRF | ≤ 0.2
KTTF | ≤ 0.2
PDPF | ≤ 0.2
LIQM | ≤ 0.2
RWAI | ≤ 0.2
RLIK | ≤ 0.2
VSIE | ≤ 0.2
SISR | ≤ 0.2
NTNT | ≤ 0.2
DYNA | ≤ 0.2
SYRF | ≤ 0.2
HQTC | ≤ 0.2
TRTF | ≤ 0.2
RFCY | 0.404
FRPN | ≤ 0.2

Variant | one-hybrid fitness for binding parS DNA
KTAV | ≤ 0.2
LTSR | ≤ 0.2
PCKA | ≤ 0.2
QQDE | ≤ 0.2
IGVG | ≤ 0.2
ITMG | ≤ 0.2
ASNW | ≤ 0.2
RQED | ≤ 0.2
SYRA | ≤ 0.2
ANLE | ≤ 0.2
THPP | ≤ 0.2
HRTY | ≤ 0.2
PFMC | ≤ 0.2
QVGH | ≤ 0.2
RHNV | ≤ 0.2
GTCT | ≤ 0.2
CRAI | ≤ 0.2
DLYG | ≤ 0.2
GVMS | ≤ 0.2
TLCY | ≤ 0.2
NSCT | ≤ 0.2
LGLP | ≤ 0.2
GAAE | ≤ 0.2
GKGN | ≤ 0.2
GRGS | ≤ 0.2

Variant | one-hybrid fitness for binding parS DNA
KCPC | ≤ 0.2
QCMF | ≤ 0.2
CEHG | ≤ 0.2
FKLF | ≤ 0.2
HPVN | ≤ 0.2
QITH | ≤ 0.2
TWRT | ≤ 0.2
CFAL | ≤ 0.2
MNPV | ≤ 0.2
RKQC | 0.825
QRIW | ≤ 0.2
TWPM | ≤ 0.2
YDSP | ≤ 0.2
YLCG | ≤ 0.2
QFNR | ≤ 0.2
GIDC | ≤ 0.2
PRYP | ≤ 0.2
RYGF | 0.205
QSCQ | ≤ 0.2
PINI | ≤ 0.2
SEYR | ≤ 0.2
EKAT | ≤ 0.2
VNSL | ≤ 0.2
QAMI | ≤ 0.2
SASC | ≤ 0.2

Variant | one-hybrid fitness for binding parS DNA
PVWG | ≤ 0.2
QSIY | ≤ 0.2
WPCT | ≤ 0.2
HQDG | ≤ 0.2
HHVL | ≤ 0.2
PPIK | ≤ 0.2
DRMT | ≤ 0.2
PDFD | ≤ 0.2
DTLE | ≤ 0.2
RSEW | ≤ 0.2
IYLG | ≤ 0.2
RPKG | ≤ 0.2
HFID | ≤ 0.2
RGRT | 0.676
SSQF | ≤ 0.2
NGTS | ≤ 0.2
RFVT | 0.614
SEIS | ≤ 0.2
HLAG | ≤ 0.2
LSMF | ≤ 0.2
